These are yes or no findings as the source states them, for the method shown. In cells and extracts the contact can be indirect. Some results given as binding are weak or reduced against the parent protein; the word gives no strength. For some assays here: Sequences can lack the tags named with a protein. One block for each molecule: values may come before it.
What was measured:
GPR135-Rluc (human) = GPR135-Rluc (human) (UniProt Q8IZ08); assay: FRET or BRET; BRET donor saturation curves in living HEK293T cells: constant amounts of GPR-Rluc (donor; 3 ng GPR61-Rluc, 0.8 ng GPR62-Rluc, 0.2–0.4 ng GPR135-Rluc) and 5–400 ng of YFP plasmids (acceptor); curves normalized to BRETmax
GPR61-Rluc (human) = GPR61-Rluc (human) (UniProt Q9BZJ8); assay: as above
GPR62-Rluc (human) = GPR62-Rluc (human) (UniProt Q9BZJ7); assay: as above
6myc-GPR62-PK2 (human) [1] = molecular target: 6myc-GPR62-PK2 (human) (UniProt Q9BZJ7); assay: split reporter; PathHunter enzyme complementation (DiscoverX) in HEK293 cells stably expressing ß-arrestin2-EA or ß-arrestin1-EA, transfected with different quantities of receptor-PK2 vectors; with or without 1 µM melatonin for 2–3 hours at 37 °C; luminescence
6myc-GPR135-PK2 (human) [2] = molecular target: 6myc-GPR135-PK2 (human) (UniProt Q8IZ08); assay: as above
6myc-GPR61-PK2 (human) [3] = molecular target: 6myc-GPR61-PK2 (human) (UniProt Q9BZJ8); assay: as above
Flag-MT1-PK2 (human) [4] = molecular target: Flag-MT1-PK2 (human) (UniProt P48039); assay: as above
HA-MT2-PK2 [5] = molecular target: T1, HA-MT2-PK2 (UniProt P49286); assay: split reporter; PathHunter in HEK-arrestin-EA cells expressing MT1-PK2 or MT2-PK2, absence or presence of the three orphan receptors; treated with the melatonin receptor antagonist S20928
T1 sequence: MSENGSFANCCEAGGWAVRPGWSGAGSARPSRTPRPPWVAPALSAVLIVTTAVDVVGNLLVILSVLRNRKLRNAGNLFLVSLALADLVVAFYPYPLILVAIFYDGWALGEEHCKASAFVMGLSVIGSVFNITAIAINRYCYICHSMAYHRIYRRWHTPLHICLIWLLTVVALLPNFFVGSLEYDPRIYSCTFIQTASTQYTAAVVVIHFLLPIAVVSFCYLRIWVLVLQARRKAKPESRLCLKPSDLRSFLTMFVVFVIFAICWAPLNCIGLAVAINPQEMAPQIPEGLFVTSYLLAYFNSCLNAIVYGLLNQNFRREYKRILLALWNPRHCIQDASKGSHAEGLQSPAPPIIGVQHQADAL

Sequences of proteins named here, by UniProt entry; tags and fusion partners are left off.
UniProt Q8IZ08: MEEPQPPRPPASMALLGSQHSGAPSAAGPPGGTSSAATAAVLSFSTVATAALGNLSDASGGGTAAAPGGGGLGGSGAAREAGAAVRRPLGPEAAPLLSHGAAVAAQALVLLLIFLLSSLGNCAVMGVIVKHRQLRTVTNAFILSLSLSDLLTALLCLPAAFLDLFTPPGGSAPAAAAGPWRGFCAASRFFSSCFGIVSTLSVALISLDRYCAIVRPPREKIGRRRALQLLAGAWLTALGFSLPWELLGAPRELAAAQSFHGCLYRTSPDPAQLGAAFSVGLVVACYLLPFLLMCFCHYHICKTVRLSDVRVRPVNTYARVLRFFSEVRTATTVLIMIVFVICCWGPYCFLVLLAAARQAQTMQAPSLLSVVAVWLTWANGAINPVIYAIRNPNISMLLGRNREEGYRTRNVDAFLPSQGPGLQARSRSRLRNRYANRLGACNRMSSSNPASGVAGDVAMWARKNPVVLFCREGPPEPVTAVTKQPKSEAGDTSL
UniProt Q9BZJ8: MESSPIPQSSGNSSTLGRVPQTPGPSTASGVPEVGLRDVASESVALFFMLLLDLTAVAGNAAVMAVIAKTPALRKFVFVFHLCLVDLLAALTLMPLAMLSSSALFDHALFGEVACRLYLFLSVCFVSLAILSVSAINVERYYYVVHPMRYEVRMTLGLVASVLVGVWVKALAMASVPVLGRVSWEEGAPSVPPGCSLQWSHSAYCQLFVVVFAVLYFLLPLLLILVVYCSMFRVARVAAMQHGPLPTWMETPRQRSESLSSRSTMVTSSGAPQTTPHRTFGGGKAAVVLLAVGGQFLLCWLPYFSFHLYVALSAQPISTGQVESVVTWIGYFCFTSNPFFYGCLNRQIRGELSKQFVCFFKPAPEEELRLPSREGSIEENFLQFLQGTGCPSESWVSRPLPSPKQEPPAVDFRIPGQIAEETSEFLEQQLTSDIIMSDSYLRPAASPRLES
UniProt Q9BZJ7: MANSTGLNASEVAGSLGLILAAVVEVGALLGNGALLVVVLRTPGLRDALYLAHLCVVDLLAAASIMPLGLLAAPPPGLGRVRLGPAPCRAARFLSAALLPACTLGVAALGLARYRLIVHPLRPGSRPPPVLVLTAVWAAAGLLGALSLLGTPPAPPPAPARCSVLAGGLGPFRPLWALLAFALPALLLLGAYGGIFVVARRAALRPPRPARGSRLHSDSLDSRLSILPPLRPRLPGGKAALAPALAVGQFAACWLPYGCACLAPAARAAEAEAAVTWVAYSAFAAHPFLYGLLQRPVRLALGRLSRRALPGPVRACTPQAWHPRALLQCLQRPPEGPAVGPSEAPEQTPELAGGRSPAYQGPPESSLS
UniProt P48039: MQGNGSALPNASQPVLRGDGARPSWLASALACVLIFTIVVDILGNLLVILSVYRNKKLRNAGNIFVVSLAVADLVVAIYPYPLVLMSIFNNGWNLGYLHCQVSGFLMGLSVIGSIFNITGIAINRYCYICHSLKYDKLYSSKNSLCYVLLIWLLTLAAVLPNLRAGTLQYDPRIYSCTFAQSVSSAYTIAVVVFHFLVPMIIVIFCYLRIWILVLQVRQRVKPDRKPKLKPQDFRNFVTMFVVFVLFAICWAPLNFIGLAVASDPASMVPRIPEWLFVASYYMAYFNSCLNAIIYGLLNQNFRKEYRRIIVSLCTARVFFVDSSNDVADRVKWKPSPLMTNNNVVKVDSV
UniProt P51681: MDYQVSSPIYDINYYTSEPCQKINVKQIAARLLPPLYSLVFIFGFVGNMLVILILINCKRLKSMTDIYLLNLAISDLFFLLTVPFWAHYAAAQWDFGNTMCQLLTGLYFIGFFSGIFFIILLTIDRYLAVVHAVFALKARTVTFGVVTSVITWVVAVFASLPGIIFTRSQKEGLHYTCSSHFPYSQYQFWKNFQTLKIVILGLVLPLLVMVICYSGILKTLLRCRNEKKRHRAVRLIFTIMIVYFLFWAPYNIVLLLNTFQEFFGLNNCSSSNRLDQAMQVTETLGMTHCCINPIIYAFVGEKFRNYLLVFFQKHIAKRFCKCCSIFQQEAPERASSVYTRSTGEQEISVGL
UniProt P32121: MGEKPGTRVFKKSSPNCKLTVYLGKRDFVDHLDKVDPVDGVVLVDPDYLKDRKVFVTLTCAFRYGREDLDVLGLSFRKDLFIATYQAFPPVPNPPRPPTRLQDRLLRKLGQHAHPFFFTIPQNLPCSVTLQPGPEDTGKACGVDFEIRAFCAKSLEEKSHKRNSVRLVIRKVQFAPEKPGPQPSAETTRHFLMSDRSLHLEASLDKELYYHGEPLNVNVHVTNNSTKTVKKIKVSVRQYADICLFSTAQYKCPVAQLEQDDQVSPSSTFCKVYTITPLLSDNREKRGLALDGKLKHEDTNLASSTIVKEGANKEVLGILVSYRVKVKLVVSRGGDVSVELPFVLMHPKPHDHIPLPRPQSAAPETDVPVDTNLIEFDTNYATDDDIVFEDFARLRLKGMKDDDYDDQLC
UniProt P49407: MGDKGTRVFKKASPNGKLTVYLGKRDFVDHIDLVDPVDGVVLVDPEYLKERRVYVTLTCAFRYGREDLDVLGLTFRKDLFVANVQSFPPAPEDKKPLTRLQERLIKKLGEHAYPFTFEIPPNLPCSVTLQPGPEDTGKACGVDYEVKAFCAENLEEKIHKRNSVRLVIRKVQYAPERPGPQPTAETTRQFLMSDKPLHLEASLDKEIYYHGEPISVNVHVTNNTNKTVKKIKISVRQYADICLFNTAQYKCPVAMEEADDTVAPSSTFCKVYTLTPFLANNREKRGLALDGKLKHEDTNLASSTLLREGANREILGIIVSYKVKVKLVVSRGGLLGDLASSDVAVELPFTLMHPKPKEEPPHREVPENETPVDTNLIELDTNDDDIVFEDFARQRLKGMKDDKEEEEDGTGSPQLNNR

Flag-MT1-PK2 (human) [6] = molecular target: Flag-MT1-PK2 (human) (UniProt P48039); assay: as above
6myc-GPR62-PK2 (human) [7] = molecular target: 6myc-GPR62-PK2 (human) (UniProt Q9BZJ7); assay: split reporter; PathHunter ß-arrestin2 competition assay: HEK-arrestin-EA cells transfected with 500 ng of GPR-PK2 vectors with or without an additional 500 ng of ß-arrestin2-YFP vector
6myc-GPR135-PK2 (human) [8] = molecular target: 6myc-GPR135-PK2 (human) (UniProt Q8IZ08); assay: as above
6myc-GPR61-PK2 (human) [9] = molecular target: 6myc-GPR61-PK2 (human) (UniProt Q9BZJ8); assay: as above
HA-MT2-PK2 [10] = molecular target: T1, HA-MT2-PK2; assay: split reporter; PathHunter in HEK-arrestin-EA cells expressing Flag-MT1-PK2, HA-MT2-PK2 or myc-MT2-MT1-Ctail-PK2 alone or with GPR61-YFP, GPR62-YFP or GPR135-YFP; melatonin 1 µM; results as % of the melatonin response of the receptor alone
Flag-MT1-PK2 (human) [11] = molecular target: Flag-MT1-PK2 (human) (UniProt P48039); assay: as above
HA-GPR61 (human) = HA-GPR61 (human) (UniProt Q9BZJ8); assay: co-IP; lysates of HEK293T cells co-expressing MT2-YFP and HA-GPR; IP with anti-HA (3F10) and Protein G, 4 °C, 50 mM Tris-HCl pH 7.5, 150 mM NaCl, 10 mM EGTA, 1 mM DTT, 1% Triton-X 100; blot with anti-GFP
HA-GPR135 (human) = HA-GPR135 (human) (UniProt Q8IZ08); assay: as above
HA-GPR62 (human) = HA-GPR62 (human) (UniProt Q9BZJ7); assay: as above

Molecule: CCR5-YFP (from UniProt P51681 1-352) (receptor)
binding (GPR135-Rluc (human)): no binding
binding (GPR61-Rluc (human)): no binding
binding (GPR62-Rluc (human)): no binding

Molecule: ß-arrestin2-EA fusion protein (from UniProt P32121 1-409)
binding (6myc-GPR62-PK2 (human) [1]): binds
binding (Flag-MT1-PK2 (human) [4]): binds
binding (6myc-GPR135-PK2 (human) [2]): binds
binding (6myc-GPR61-PK2 (human) [3]): binds
binding (HA-MT2-PK2 [5]): no binding (condition: with the antagonist S20928)
binding (Flag-MT1-PK2 (human) [6]): no binding (condition: with the antagonist S20928)
binding (6myc-GPR62-PK2 (human) [7]): binds
binding (6myc-GPR135-PK2 (human) [8]): binds
binding (6myc-GPR61-PK2 (human) [9]): binds
binding (HA-MT2-PK2 [10]): binds
binding (Flag-MT1-PK2 (human) [11]): binds

Molecule: ß-arrestin2-YFP (from UniProt P32121 1-409)
binding (6myc-GPR62-PK2 (human) [7]): binds
binding (6myc-GPR135-PK2 (human) [8]): binds
binding (6myc-GPR61-PK2 (human) [9]): binds

Results, then the molecule that gave them:

binding (6myc-GPR62-PK2 (human) [1]): binds
binding (6myc-GPR135-PK2 (human) [2]): binds
binding (6myc-GPR61-PK2 (human) [3]): binds
Molecule: ß-arrestin1-EA (from UniProt P49407 1-418)

binding (GPR135-Rluc (human)): binds
binding (GPR61-Rluc (human)): binds
binding (GPR62-Rluc (human)): binds
binding (HA-GPR61 (human)): binds
binding (HA-GPR135 (human)): binds
binding (HA-GPR62 (human)): binds
B1: MT2-YFP (receptor, UniProt P49286 1-362)
chain: T1 sequence

— paper PMC5566548
